About 200 (0.44%) of roughly 45,000 compounds were called active. Another 7% or so got no clear call; they are omitted. The call rests on the fitted dose curve; in most records, active means well fitted activation curve with a large enough effect; inconclusive means small, poorly fitted or top-dose-only effect; inactive means no such curve, though single readings can be large or run the other way. The list shows a part of the results.
Assay: qHTS of TDP-43 Inhibitors: NCGC Sytravon Library Screen; further: 0% is about no effect; nearly all actives have a fitted effect of over 55% in size
Conditions: yeast TDP-43 toxicity rescue, BacTiter-Glo growth, 24 h; series mostly up to 46.1 µM; growth rescue (activation): at the top concentration
Procedure, shortened: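 TDP-43-expressing yeast, pregrown in raffinose, seeded at OD600 0.02 in galactose medium with compound for 24 hr at 30 deg C. Growth read by BacTiter-Glo luminescence, so rescue of toxicity appears as activation.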

| Compound | growth rescue (activation) |
| --- | --- |
| Cc1ccc(-n2c(N)c(Br)c(=O)[nH]c2=O)cc1C | inactive: 16.4% |
| Cc1ccc(N(CC(N)=O)C2SC(=O)N(Cc3cccc(C(=O)O)c3)C2=O)cc1 (stereo unspecified) | inactive: -24% |
| O=[N+]([O-])c1cc(S(=O)(=O)N2CCCC2)ccc1N/N=C/c1ccncc1 | inactive: 29% |
| Cc1cccc(N2C(S)=C(C#N)C(=O)NC2c2ccco2)c1 (stereo unspecified) | inactive: 11.3% |
| COc1ccc(NC(=O)C2(C)CCN2Cc2csc3ccccc23)cc1OC (stereo unspecified) | inactive: 5.57% |
| COCCNc1nc(Oc2cccc3ccccc23)c2sccc2n1 | inactive: 23.9% |
| O=C(O)c1c2c(nc3ccccc13)/C(=C/c1ccccc1[N+](=O)[O-])CCC2 | inactive: -4.91% |
| C=CCN(CC(O)c1cccc([N+](=O)[O-])c1)C(C)CCc1ccccc1 (stereo unspecified) | inactive: -32.5% |
| Cn1ncc(Cl)c(Oc2ccc(Cl)cc2)c1=O | inactive: 28.3% |
| CCOc1ccc2oc(C(=O)Nc3ccc4c(c3)OCO4)c(C)c2c1 | inactive: -28.8% |
| CCCNC(=O)C1(C)CCCN(C(=O)c2cc(F)ccc2C)C1 (stereo unspecified) | inactive: 2.39% |
| CSc1ccccc1OCc1cc(C(=O)NCCn2nc(C)cc2C)no1 | inactive: -4.32% |
| Cc1cccc(C)c1NS(=O)(=O)c1ccc2c(c1)NC(=O)CO2 | inactive: -8.96% |
| COc1ccc(-n2nnnc2SCC(=O)NC(=O)Nc2ccc3c(c2)OCCO3)cc1 | inactive: 20.2% |
| COc1ccc(CC2(CO)CCN(C/C=C/c3ccccc3OC)CC2)cc1 | inactive: -2.63% |
| CSCC[C@H](NC(=O)Nc1ccc(OC(F)(F)F)cc1)C(=O)O | inactive: 5.02% |
| NC(=O)c1c(N)sc2c1CCC2 | inactive: -16.1% |
| Cc1cccc(OCC(=O)N(Cc2cccc(Cl)c2)Cc2ccco2)c1C | inactive: 13% |
| CC(C)(C)C1CCC(C(=O)Nc2cccnc2)CC1 (stereo unspecified) | inactive: 10.7% |
| O=C(C1CCN(C2CCN(C/C=C/c3ccccc3)CC2)CC1)N1CCOCC1 | inactive: 6.33% |
| CCN(CC)CCNS(=O)(=O)c1ccc(/C=C/C(=O)O)cc1 | inactive: 10.3% |
| CC(=O)c1cccc(N(CC(=O)Nc2ccc(F)cc2)S(C)(=O)=O)c1 | inactive: 8.81% |

| Compound | growth rescue (activation) |
| --- | --- |
| CSc1cccc(NC(=O)CCCOc2ccc(Cl)cc2C)c1 | inactive: 20% |
| O=C(O)CSc1nnc(-c2ccc(Cl)cc2Cl)n1-c1ccc(Br)cc1 | inactive: 3.24% |
| CCc1cccc(CC)c1NC(=O)c1ccccc1 | inactive: 10.3% |
| NS(=O)(=O)c1ccc(CCNC(=O)c2coc3ccccc3c2=O)cc1 | inactive: 4.49% |
| S=c1[nH]nc(COc2cccc3ccccc23)n1Cc1ccccc1 | inactive: 0.82% |
| CC(=O)Nc1cc(-c2cccc(C(=O)N(C)C)c2)cn2c(-c3ccccc3)cnc12 | inactive: -1.63% |
| CNS(=O)(=O)c1ccc2nc(NC(=O)c3ccc(N4C(=O)CCC4=O)cc3)sc2c1 | inactive: -13.9% |
| O=C(CNCCc1ccccc1)Nc1ccc(C(=O)N2CCCCC2)cc1 | inactive: -3.72% |
| COc1ccc(CC(=O)OCC(=O)Nc2ccc(Cl)cc2C)cc1 | inactive: 28.3% |
| CCCCc1nc2ccccc2n1CC(=O)NN | inactive: 1.48% |
| COc1ccccc1CN1C[C@@H]2C[C@@H](c3cccc(C)n3)N3CCC[C@@]23C1=O | inactive: -0.0853% |
| CC(C)NC(=O)NC(=O)COC(=O)c1ccc(OC(F)(F)F)cc1 | inactive: 17.5% |
| CCc1ccc(N2CC(C)Cn3c2nc2c3c(=O)[nH]c(=O)n2C)cc1 (stereo unspecified) | inactive: 0.451% |
| O=C(CC1S/C(=N/N=C/C=C/c2ccccc2)NC1=O)Nc1ccc(C(=O)O)cc1 (stereo unspecified) | inactive: 20.7% |
| CCc1ccc(N(C(=O)c2csnn2)C(C(=O)NC(C)(C)CC)c2cccnc2)cc1 (stereo unspecified) | inactive: 7.01% |
| CC(NC(=O)c1ccc2c(c1)OCCO2)c1ccc(S(N)(=O)=O)cc1 (stereo unspecified) | inactive: -15.3% |
| O=C(CSc1ccccc1)Nc1ccc(C(=O)Nc2cccc(O)c2)cc1 | inactive: 5.57% |
| Cc1ccc(OCC(=O)Nc2cc(S(=O)(=O)N3CCCCC3)ccc2C)c([N+](=O)[O-])n1 | inactive: 11.6% |
| Cc1cc(C(C2C(=O)CC(C)(C)CC2=O)C2C(=O)CC(C)(C)CC2=O)cc(C)c1OC(F)F | inactive: 4% |
| O=C(NCc1ccccc1)c1ccc(S(=O)(=O)NCc2ccco2)cc1 | inactive: 13.8% |
| Cc1ccccc1CN1CCc2cc([N+](=O)[O-])ccc21 | inactive: 15.6% |
| CC(Sc1ccc(S(=O)(=O)N2CCOCC2)cc1[N+](=O)[O-])C(=O)O (stereo unspecified) | inactive: 10.1% |

| Compound | growth rescue (activation) |
| --- | --- |
| COc1ccc(C(=O)NC(=S)NNC(=O)c2ccco2)cc1 | inactive: -2.79% |
| CC(C)C(=O)N1CCC1(C)C(=O)Nc1ccc(-n2cncn2)cc1 (stereo unspecified) | inactive: 11.9% |
| CCn1c2c(c(=N)c3c1CCC3)CCCC2 | inactive: 8.49% |
| COc1ccc(C(=O)N[C@H](C(=O)NCCCSc2ccccc2)C(C)C)cc1 | inactive: 1.66% |
| CCOC(=O)c1ccc2ncc(C(=O)OCC)c(NCCc3ccc(OC)c(OC)c3)c2c1 | inactive: 14.6% |
| C/C(=N\NC(=O)CCCC(=O)O)c1c(-c2ccccc2)c2cc(Cl)ccc2[nH]c1=O | inactive: 5.69% |
| O=c1c2ccccc2oc2cc(OCc3ccc(F)cc3)cc(O)c12 | inactive: 9.67% |
| CCc1nc2c(OCC(=O)C(C)(C)C)cccn2c1N(C)C(=O)c1ccc(C)cc1 | inactive: 14% |
| COc1cc(NC(=O)Cn2ccsc2=N)c(C)cc1[N+](=O)[O-] | inactive: -13.1% |
| COc1ccc(-n2nc(C(=O)NCC(=O)N3CCN(Cc4ccccc4)CC3)c3ccccc3c2=O)cc1OC | inactive: 8.03% |
| COCCn1c(C)cc(C(=O)CN2CCCCC2)c1C | inactive: 9.97% |
| COc1cc(C(=O)NCCc2ccc(F)cc2)c([N+](=O)[O-])cc1OC | inactive: 4.83% |
| Cc1ccccc1-c1nc(NC(=O)CSc2ncnc3sc4c(c23)CCCC4)ns1 | inactive: -3.59% |
| O=C(CSc1nc(-c2ccccc2)cc(C(F)(F)F)n1)c1cccc([N+](=O)[O-])c1 | inactive: 6.61% |
| COc1ccc(C(=O)Nc2nc3ccccc3s2)c(OC)c1 | inactive: -34.6% |
| CC(=O)c1ccc(N(C(=O)CNC(=O)c2cccs2)C(C(=O)NCC2CCCO2)c2ccccc2)cc1 (stereo unspecified) | inactive: -0.46% |
| Cc1cc(C(=O)N2CCCC(N3CCN(c4cccc(Cl)c4)CC3)C2)n(C)n1 (stereo unspecified) | inactive: -3.51% |
| COCCCNC(=O)/C=C/c1c(Cl)cccc1Cl | inactive: 22.5% |
| NC(Cc1ccc(Cl)cc1)c1csc(NC(=O)NCC2CCCCC2)n1 (stereo unspecified) | inactive: 16% |
| Cc1ccc(S(=O)(=O)N2CCN(c3c([N+](=O)[O-])cc(C(F)(F)F)cc3[N+](=O)[O-])CC2)cc1 | inactive: -20% |
| COc1cccc(NC(=O)Nc2nnc([C@H]3C[C@H](O)[C@@H](CO)O3)s2)c1 | inactive: -7.97% |
| O=C(NNC(=O)c1ccccc1Br)c1ccccc1Cl | inactive: 10.2% |

| Compound | growth rescue (activation) |
| --- | --- |
| COc1ccc(CN2C(=O)c3cccc4cccc(c34)C2=O)cc1 | inactive: 0.488% |
| NC(=O)NCCN1CCN(c2ncc(C(F)(F)F)cc2Cl)CC1 | inactive: -1.96% |
| Cc1cccc(N(CC(=O)NC2CCCC2)C(=O)CCC(=O)Nc2nc(C)cs2)c1 | inactive: 7.46% |
| O=C(CCc1nnc(C2CCCCC2)o1)NCc1ccc(F)c(F)c1 | inactive: 3.6% |
| COc1ccc(N(C(=O)c2snc(C(N)=O)c2N)C(C(=O)NCc2ccccc2)c2ccc(O)cc2)cc1 (stereo unspecified) | inactive: -1.75% |
| CNC(=O)CSc1nc2cc(S(=O)(=O)Nc3ccccc3OC)ccc2o1 | inactive: 10.8% |
| Cc1cc(S(=O)(=O)NCCc2ccccc2)ccc1-n1cnnn1 | inactive: -3.7% |
| COc1ccc(C2=NN(Cc3ccccc3)C3C(=O)NC(=O)C23)cc1 (stereo unspecified) | inactive: -5.4% |
| C(=N/Nc1nccs1)/c1cccnc1 | inactive: 16.1% |
| Cc1ccccc1Cn1c(=N)n(CC(=O)c2ccc([N+](=O)[O-])cc2)c2ccccc21 | inactive: 2.57% |
| CCOc1cc(N2CCOCC2)c(OCC)cc1NC(=O)C(C)C | inactive: 1.77% |
| Cc1cccc(N(Cc2ccc(Cl)cc2)S(C)(=O)=O)c1 | inactive: 17.9% |
| Cc1cc(C(C)(C)C)cc(C)c1S(=O)(=O)N1CC(=O)Nc2ccccc21 | inactive: 20.8% |
| CC(NC(=O)c1ccc(CS(C)(=O)=O)cc1)c1ccc(-c2ccccc2)cc1 (stereo unspecified) | inactive: 15.6% |
| O=C(O)CCNc1cc(N2CCN(C(=O)c3ccco3)CC2)c2noc3c2c1C(=O)c1ccccc1-3 | inactive: -32.7% |
| COc1ccc(NS(=O)(=O)c2ccc(C(=O)N3CCCCCC3)cc2)cc1 | inactive: -1.62% |
| CC(NC(=O)c1ccccc1Cl)C1CC2CCC1C2 (stereo unspecified) | inactive: 15.5% |
| O=C(CSc1nc2ccc(Cl)cc2[nH]1)NCCc1ccc(Cl)cc1 | inactive: 1.01% |
| O=C(CSc1ccccc1C(=O)O)NC1CCCCCC1 | inactive: 5.61% |
| O=C(Nc1ccc(F)cc1)C1CC(=O)n2cnnc2N1 (stereo unspecified) | inactive: -2.05% |
| NS(=O)(=O)c1ccc(CCNC(=O)CSc2ncnc3ccccc23)cc1 | inactive: 2.54% |
| O=C(N/N=C/c1cn(-c2cccs2)nc1-c1ccccc1)c1ccccc1Cl | inactive: -1.65% |

| Compound | growth rescue (activation) |
| --- | --- |
| COc1ccc(C(=O)NC(C)c2nnc(SCC(=O)NC3=NCCS3)n2C)cc1 (stereo unspecified) | inactive: -12.1% |
| O=C(NC(=S)Nc1ncccn1)c1ccc(F)cc1 | inactive: 15.7% |
| OC(COc1ccc(F)cc1Cl)CN1CCc2ccccc2C1 (stereo unspecified) | inactive: -1.25% |
| C/C(=N\NC(=O)Cn1cnc2ccccc21)c1cccs1 | inactive: -3.16% |
| COc1cc(OC)cc(C(=O)N[C@H](C(=O)NNC(=O)c2ccc(Br)cc2)C(C)C)c1 | inactive: 13.5% |
| COc1cc(NC(=O)c2cccs2)c(OC)cc1NC(=O)Nc1ccc(F)cc1 | inactive: -4.41% |
| O=C(NCCCNC(=O)c1ccco1)c1ccc(F)cc1 | inactive: 14.3% |
| NC(=O)NC(=O)COC(=O)c1ccc2noc(-c3ccccc3)c2c1 | inactive: 9.18% |
| CCCNC(=O)C1(C)CCCN(C(=O)c2cccc(OC(F)(F)F)c2)C1 (stereo unspecified) | inactive: -6.83% |
| Cn1cc(CN2CCCCC2c2ccccn2)c(-c2ccc3c(c2)OCCO3)n1 (stereo unspecified) | inactive: -18.4% |
| Cc1ccsc1-c1nc(CN2CCN(C)C(=O)[C@@H]2C)c(C)o1 | inactive: 18.8% |
| CSC1=NSC2=NC(=O)/C(=C/c3coc4ccccc4c3=O)C(=N)N12 | inactive: -94.3% |
| O=C(c1ccccc1F)N(Cc1cccnc1)Cc1cc2cc3c(cc2[nH]c1=O)OCCO3 | inactive: 0.469% |
| COc1ccc(CCNC(=O)c2c(C)nn(-c3ccccc3)c2Cl)cc1OC | inactive: 18.8% |
| OCCC1CN(Cc2cnc(-c3ccccc3)s2)CCN1C1CCCCC1 (stereo unspecified) | inactive: -4.83% |
| Nc1nc(CN2CCN(c3ccccc3F)CC2)nc(N2CCCc3ccccc32)n1 | inactive: 9.47% |
| CC(C(=O)N1CCCCC1)N(C)CC(=O)Nc1ccc(Cl)cc1 (stereo unspecified) | inactive: -4.04% |
| COc1ccc(S(=O)(=O)NCc2ccccn2)cc1NC(=O)c1ccccc1 | inactive: 2.73% |
